Results as given in the RNAGym collection of RNA variant scans (doi:10.7554/elife.90254).
The source gives no read counts; variants with many changes may rest on few reads.

B1: LINE1-mini (parent)
chain: GGCAGAGCUCAACACAGCGUGGCAAAGUGGCUGUGGCUAGACUGCC

Variants of: B1
Assay: self-cleavage, relative activity (ratio to wild type); higher = more cleavage; in vitro, sequencing; the parent is a self-cleaving ribozyme

| Variant | self-cleavage |
| --- | --- |
| C13U C18A G30U C31A G33C | 0.03 |
| C13U G17C G21A G33C | 0.03 |
| A14G U38C C42U | 0.03 |
| C13U C15G G21U G40A | 0.01 |
| A14G G33U U34A C37G A39U C46G | 0.02 |
| C13U C18U G29A C42U | 0.01 |
| A14U C15G G19A A26G G27A | 0.02 |
| A14C C18A A41U | 0.09 |
| A14U C15G G22A A24C U28C G33U U34G | 0.12 |
| A14U A16G G29C C31A A41C | 0.04 |
| A14U U32C U38C | 0.11 |
| A14C G27A U34G | 0.04 |
| A14U G19C G27A C46G | 0.36 |
| A14U U20A G29U A41U | 0.42 |
| A14G C31G U32C A39G U43G | 0 |
| A14C G17U G19U | 0.13 |
| A14G A24U U32C | 0 |
| A14G A16G A24U A26U G44A | 0.03 |
| A14U C15U G30C G36A U43C | 0.02 |
| A14C G35U C46A | 0.04 |
| A14C C37U C46U | 0.02 |
| C13U G22C U38A | 0.05 |
| A14U G17U G29A | 0.08 |
| A14G A26U G27U U28A G29U C31A | 0.16 |

| Variant | self-cleavage |
| --- | --- |
| A14U C15U G17A | 0 |
| C13U C15A G21C G22C A25C | 0.02 |
| A14G C23G G29C U38A | 0.04 |
| A14U A16G A24U U34C | 0.14 |
| A14G G40A C42G | 0.06 |
| A14G A26U G27U G30A A39C | 0.01 |
| A14U C18A G30U | 0.08 |
| C13U G30C C31G G35U C42U | 0.03 |
| C15A A25C G40U C45G | 0.01 |
| A14C G19A G36U U38A G44A | 0.01 |
| A14U C15G A26G A39C A41C | 0.07 |
| A14C G22U C23U | 0.06 |
| A14G C18A G19C U38G | 0.12 |
| A14C C15U C46A | 0.09 |
| A14G G17U U43A C46U | 0 |
| C13U G17C C23G G29C C31U | 0.1 |
| C13U G19U G36A | 0.23 |
| C13U C15G U43C | 0.03 |
| C13U G17C G21A A39U A41G U43A | 0.09 |
| A14C A16U G44U | 0.07 |
| C15A A24C C45U | 0.1 |
| C13U G36A C45A | 0 |
| A14G G17A G22A | 0.09 |
| C13U C15A G27U | 0.02 |

| Variant | self-cleavage |
| --- | --- |
| A14G G30C C31G | 0.02 |
| C13U G21A C23U G33A G36C | 0.05 |
| A14G C15A U38C C42G C45A | 0.2 |
| C15A A16C C23A G33U | 0.13 |
| A14G C18G A39C | 0.04 |
| A14U C15U G21A G33U | 0.08 |
| C13U G17A A41C | 0.04 |
| C13U G36A G44A | 0.09 |
| A14U G19A G22C G36A C37A G44U | 0.01 |
| A14C G29A C31U G44A | 0.05 |
| A14C C15G G19U | 0.08 |
| A14C C23U G27U G44U | 0.04 |
| A14G G44C C46G | 0.03 |
| A14G G17C G27U U34G | 0.03 |
| A14C A16U G29U A41U | 0.15 |
| A14C A16G A24U A25C | 0.02 |
| A14G A16U U20A | 0.03 |
| A14C C15U C31A C37U | 0.03 |
| A14C C15A U20A U28C G29C | 0.01 |
| A14G A16C G40U | 0.02 |
| A14C G30C C42A C46U | 0.07 |
| C13U G19A C37U | 0.14 |
| A14C C18U G35U | 0.03 |
| A14C C23G G44U | 0.03 |

| Variant | self-cleavage |
| --- | --- |
| C13U C18G C31A | 0.08 |
| A14G G17C A24C G27C A41U | 0.13 |
| A14G G17C C18A G29C U34A | 0.04 |
| C13U U32A G35U | 0 |
| A14G C18U G36C G40U | 0.08 |
| A14C U20C G21A G22U A24U | 0.06 |
| C13U C15A G40U | 0.14 |
| A14G G22U C37A U38G G40C | 0 |
| A14G G19A C23U | 0.28 |
| C15A A24U U32G | 0.08 |
| A14G G27U U38C | 0.03 |
| C13U U20A A26G G30A C42G | 0.03 |
| C13U U20A G35U C42A | 0.01 |
| A14U C15G C18U C31U | 0.03 |
| A14U G35C C45A | 0.14 |
| C13U U20C G29C G44U | 0.05 |
| C15A A16G A26U U32G | 0.04 |
| A14C C18U G21U G22C C31A A39U C46G | 0.01 |
| A14G G17U G30U U34A | 0 |
| C13U G40C C46G | 0.19 |
| A14G C23A G35A | 0.08 |
| C13U G21U G22U | 0.59 |
| A14U G21U C23A | 0.81 |
| A14G C18A G40C C46G | 0.02 |

| Variant | self-cleavage |
| --- | --- |
| A14U C23A G33A G35A | 0.04 |
| C13U G36A C46A | 0 |
| A14G A24C G29U C45U | 0.2 |
| A14C A16G U38G C42A | 0.01 |
| A14C A16G G17U U28G | 0.03 |
| A14U U38C C42G | 0.01 |
| A14U A25G G35U | 0.09 |
| A14C A41G C42U | 0.05 |
| A14C U20C G30A C42U | 0.13 |
| A14G C15U G21U U43C C45G | 0.03 |
| A14U A26U A39C | 0.1 |
| A14U G22U G35U | 0.2 |
| A14G G17U G21U C23G G44A | 0.03 |
| C15A A26G A39U | 0 |
| A14U G17C G36A | 0.09 |
| A14U C15G C23G C46G | 0.01 |
| A14U G19A U32G U38C | 0 |
| C13U G35U U38G | 0.02 |
| C13U C23A A26G G27U U32A G36A | 0.17 |
| A14C G36A U38C C46G | 0.03 |
| A14C G17A A39G | 0 |
| A14U C18A G21C C37G | 0.02 |
| A14G G21A G35U G44A | 0.04 |
| C13U C18G U20A C42U | 0.07 |

| Variant | self-cleavage |
| --- | --- |
| C13U G22C G40U | 0.05 |
| C13U G19A C31A | 0.04 |
| A14C C31A G36A G40U C46U | 0.05 |
| A14U G30C C37A C45A | 0.01 |
| C15A A26U G29U | 0.05 |
| A14U G29U G35U | 0.16 |
| A14C G19U G29U G33A | 0.06 |
| A14G C15U U20G C37A | 0.03 |
| A14G C18U C37G A41C | 0.02 |
| A14C G21U A25G | 0.06 |
| A14U A24C G29C C37A U38C | 0.04 |
| A14U G36U G44C | 0.04 |
| C13U G22C A26U G44A C45U | 0.02 |
| C13U C18U G19U G30U | 0.03 |
| A14G G29C C31U | 0.04 |
| A14G U32G C37U | 0.02 |
| A14U G21C C31G U38G | 0.01 |
| C15A A16U A25C G36U C37A | 0.02 |
| A14C G19C A39C | 0 |
| A14G G30C G33A G35A | 0.13 |
| C13U C18A G21U | 0.09 |
| A14C G22U A24C G27U G44A | 0 |
| A14C U20A G27A | 0.18 |
| A14U U20G U28G C31U | 0 |

| Variant | self-cleavage |
| --- | --- |
| A14C A25G G30A | 0.03 |
| A14U G17U C18A | 0.03 |
| A14G C15A C31A C42A C46G | 0.03 |
| C13U G27C U28C U32G G36U G44A | 0.01 |
| C13U C31G G36U | 0.28 |
| A14C A16U G21U C46A | 0.08 |
| A14C C15U U20A C23U | 0.14 |
| C13U C18A G19U G21A U28A | 0.04 |
| A14C G19C A24C U34G | 0.4 |
| C13U C15G U34C | 0.01 |
| C13U C15U C46A | 0.25 |
| A14G A24U U32C G36A U43G | 0.04 |
| A14G G29C C37G C46U | 0.01 |
| C13U G19U G22U A25U | 0.14 |
| C13U G22U A24U | 0.26 |
| A14U G19U G27U G40C | 0.05 |
| A14G U34C C37U | 0.07 |
| C13U U20A A26G G44A | 0.01 |
| A14C C15A A24G U28G | 0.01 |
| C13U C15U C37G | 0.03 |
| A14C G19U G44U | 0.11 |
| A14U U20A A26U G40C | 0.1 |
| A14U G22A A24U G29C | 0.14 |
